Test results published in PubChem BioAssay AID485313 (National Center for Advancing Translational Sciences (NCATS), 2010).
About 7,600 (2.4%) of roughly 320,000 compounds were called active. The shares of active, inactive and inconclusive entries below differ from those in the screen. Calls come from the whole dose curve; as a rule, active = well fitted activation curve with a large enough effect; inconclusive = small, poorly fitted or top-dose-only effect; inactive = no such curve, though single readings can be large or run the other way. No potency is given beside an inconclusive call; the fits are too rough.
Potency is the fitted concentration of half-maximal effect; tags give direction and shape of the fitted curve.

Experiment: qHTS Assay for NPC1 Promoter Activators; note: nearly all actives have a fitted effect of over 60% in size;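 for activation: reporter is driven by a mutant NPC1 promoter; % of control where 0% means no effect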
Settings: Huh7 NPC1 promoter luciferase reporter, 24 h; series mostly up to 9.22 µM; activation: at the top concentration
Outline: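 NPC1 promoter–luciferase Huh7 cells; 24 h compound; luminescence.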
With `Cc1ccc(CSc2nnc(-c3ccco3)o2)cc1` the Potency was inconclusive [activator, partial curve]. For `COCC(C)NS(=O)(=O)c1ccc(C(=O)NCCCn2ccc3ccccc32)cc1` (centres undefined), the “activation” value was inactive: 0.435%. With `COc1cccc(C(=O)NOCc2ccccc2)c1OC` the Potency was inconclusive [activator, single point]. In the case of `CN(C(=O)Nc1cnc2ccccc2c1)c1ccccc1`, the Potency is reported as inconclusive [activator, partial curve]. For `Cc1cc(=O)[nH]c(SCCOc2ccc(OC(C)C)cc2)n1`, the Potency was inconclusive [activator, partial curve]. For `Cc1c(C(=O)Nc2nnc(C(F)(F)F)s2)oc2ccccc12`, the Potency was inconclusive [activator, partial curve]. In the case of `CC(C(c1cccs1)c1c(N)n(C)c(=O)n(C)c1=O)[N+](=O)[O-]` (centres undefined), the “activation” value is reported as inactive: -1.86%. With `CC(=O)Nc1ccc(NC(=O)COC(=O)c2ccco2)cc1` the “activation” value was inactive: -1.11%. In the case of `COc1nc(C)ccc1-c1noc(-c2cccnc2)n1`, the Potency is reported as inconclusive [activator, partial curve]. In the case of `CCOC(=O)c1ccc(NC(=O)CCS(=O)(=O)c2cccc3nonc23)cc1`, the “activation” value is reported as inactive: -0.695%. With `COc1cc2c(cc1OC)C(c1cccs1)N(C(=O)c1cccc(S(=O)(=O)N(C)C)c1)CC2` (centres undefined) the “activation” value was inactive: -3.33%. In the case of `N#CCc1nc(CSc2nc3ccccc3o2)cs1`, the Potency is reported as inconclusive [activator, partial curve]. In the case of `Cc1cc2cc(CNC(=O)c3cccs3)ccc2[nH]1`, the Potency is reported as inconclusive [activator, partial curve, poor fit]. With `CN(C)c1ccc(Nc2nc(N)c3ccccc3n2)cc1` the Potency was inconclusive [activator, full curve]. In the case of `Cc1nc(-c2ccc(NC(=O)c3cccs3)cc2)cs1`, the Potency is reported as active: 0.355 µM. In the case of `COCCNc1c(-c2cc3ccc(C)c(C)c3[nH]c2=O)nc2ccccn12`, the Potency is reported as active: 2.51 µM. For `Cc1nnc(NC(=O)C2COc3ccccc3O2)s1` (centres undefined), the Potency was inconclusive [activator, single point]. In the case of `O=C(O)c1ccc(N/N=C/c2cn(Cc3ccc(F)cc3)c3ccccc23)cc1`, the Potency is reported as active: 2 µM. With `COc1ccc(-c2nnc(SCC(=O)c3cc(C)n(Cc4cccs4)c3C)o2)cc1` the “activation” value was inactive: -1.06%. In the case of `C=CCn1cnc2c(NCc3ccccc3)ncnc21`, the Potency is reported as inconclusive [activator, partial curve]. For `Cn1ccsc1=NC(=O)c1ccc(S(C)(=O)=O)c([N+](=O)[O-])c1`, the Potency was inconclusive [activator, partial curve]. With `C=CCn1cccc(C(=O)Nc2ccc(Cl)cc2)c1=O` the Potency was inconclusive [activator, partial curve]. For `Cc1nc(S(=O)(=O)Cc2ccccc2Cl)nc2c1CCC2`, the “activation” value was inactive: -5.27%. With `CCc1ccc(/C=N/NC(=O)c2cc(-c3ccccc3OC)nc3ccccc23)s1` the “activation” value was inactive: 1.79%. For `COc1ccc2cc(C(=O)NCc3ccccc3)c(=O)oc2c1`, the Potency was inconclusive [activator, single point]. With `CC12CCC(C(=O)Nc3nc4ccccc4s3)(OC1=O)C2(C)C` (centres undefined) the Potency was inconclusive [activator, partial curve]. With `O=C(NC(=S)Nc1ccc(N2CCOCC2)cc1)c1ccc2c(c1)OCCO2` the “activation” value was inactive: 14%. With `CC1CCCCN1S(=O)(=O)c1ccc(C(=O)Nc2sccc2C(N)=O)cc1` (centres undefined) the Potency was inconclusive [activator, partial curve]. For `O=C(O)c1cc(N/N=C/c2c(O)ccc3ccccc23)ccc1Cl`, the Potency was active: 1.58 µM. For `O=C(NCCc1ccccc1)c1cc(-c2ccco2)on1`, the Potency was active: 2.51 µM. With `COc1ccc(NC(=O)c2cccn(CC=C(C)C)c2=O)cc1` the Potency was inconclusive [activator, partial curve]. For `COc1ccc(NC(=O)CN2C(=O)NC(C)(C3CC3)C2=O)c(OC)c1` (centres undefined), the “activation” value was inactive: -2.98%. In the case of `CC(=O)Nc1cccc(-c2cc(C)c3cc4c(cc3n2)OCO4)c1`, the Potency is reported as inconclusive [activator, partial curve]. In the case of `CCOc1ccc(NC(=O)c2nn(C)cc2Br)cc1`, the Potency is reported as inconclusive [activator, partial curve]. In the case of `O=C(Nc1ccc(NC(=O)c2ccc([N+](=O)[O-])cc2[N+](=O)[O-])cc1)c1ccco1`, the “activation” value is reported as inactive: 1.13%. With `COCCNC(=O)CSc1nc(-c2ccccc2)cs1` the Potency was inconclusive [activator, single point]. With `Clc1ccc(CSc2snnc2-c2ccccc2)c(Cl)c1` the Potency was inconclusive [activator, partial curve]. For `COc1ccccc1NC(=O)c1csc2c1CCC(C)C2` (centres undefined), the Potency was inconclusive [activator, single point]. For `O=C(COc1ccc(/C=N/NC(=O)c2cc3ccccc3o2)cc1Br)Nc1ccccc1`, the Potency was inconclusive [activator, full curve, poor fit]. With `O=C(/C=C/c1ccccc1)Nc1ccc(Cl)cn1` the Potency was inconclusive [activator, partial curve]. In the case of `CCCCn1nnc(NC(=S)NC(=O)c2cccs2)n1`, the Potency is reported as inconclusive [activator, single point]. In the case of `CC1CCN(c2nnc(N)s2)CC1`, the Potency is reported as active: 2.24 µM. With `Cc1csc(NC(=O)c2ccc3c(c2)OCO3)n1` the Potency was inconclusive [activator, full curve]. For `COc1ccccc1CCC(=O)Nc1nc2ccccc2[nH]1`, the Potency was inconclusive [activator, single point]. With `COC(=O)c1sc2nc(-c3ccco3)ccc2c1N` the Potency was active: 1.41 µM. With `Nc1nc(-c2sc3nc4c(cc3c2N)CCCC4)nc(N2CCOCC2)n1` the Potency was inconclusive [activator, single point]. With `O=C(O)c1ccccc1CSc1nc2ccccc2o1` the Potency was active: 4.47 µM. In the case of `CCOC(=O)C1=C(C)NC(SC)=C(C#N)C1CC(C)C` (centres undefined), the “activation” value is reported as inactive: -33.1%. In the case of `COP(=O)(OC)C(Nc1ccc(C)cc1)c1ccc([N+](=O)[O-])cc1` (centres undefined), the Potency is reported as inconclusive [activator, partial curve].
